Data published in the supplement of paper PMC3334620.
Over roughly 33,000 sequences, “E-score (-0.5 to 0.5)” has its median near -0.041; the highest 2% begin near 0.37. This is one part of the list.

Molecular target: T1, Ecm22 (UniProt Q05958)
T1 sequence: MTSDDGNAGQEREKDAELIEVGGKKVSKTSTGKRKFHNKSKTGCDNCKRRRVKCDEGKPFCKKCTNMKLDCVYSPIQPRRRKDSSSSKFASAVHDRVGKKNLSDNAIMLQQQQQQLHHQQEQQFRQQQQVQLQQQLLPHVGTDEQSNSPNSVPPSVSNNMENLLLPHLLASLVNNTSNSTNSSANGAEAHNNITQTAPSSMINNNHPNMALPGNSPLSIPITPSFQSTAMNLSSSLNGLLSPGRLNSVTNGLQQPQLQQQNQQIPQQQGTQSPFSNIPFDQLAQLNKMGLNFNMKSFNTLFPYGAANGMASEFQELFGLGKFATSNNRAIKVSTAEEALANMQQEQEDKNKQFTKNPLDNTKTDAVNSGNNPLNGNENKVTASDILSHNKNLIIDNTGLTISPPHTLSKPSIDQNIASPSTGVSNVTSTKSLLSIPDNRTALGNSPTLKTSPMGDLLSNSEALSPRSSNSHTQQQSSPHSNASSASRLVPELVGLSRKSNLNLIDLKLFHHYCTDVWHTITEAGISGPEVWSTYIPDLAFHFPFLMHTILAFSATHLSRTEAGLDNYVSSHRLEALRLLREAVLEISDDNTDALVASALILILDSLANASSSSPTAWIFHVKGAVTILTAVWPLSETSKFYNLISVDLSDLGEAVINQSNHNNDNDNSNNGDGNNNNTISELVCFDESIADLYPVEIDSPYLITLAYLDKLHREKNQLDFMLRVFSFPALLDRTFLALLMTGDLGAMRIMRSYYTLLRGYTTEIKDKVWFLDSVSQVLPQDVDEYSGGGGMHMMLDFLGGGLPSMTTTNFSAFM
Test: PBM E-score (8-mer binding enrichment) (E-score (-0.5 to 0.5)); higher = stronger / more preferred TF binding; most listed sequences are background and not binding sites
Conditions: protein concentration: 200 nM; construct: GST-full length
Procedure, shortened: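 For each ungapped eight-base word taken together with its reverse complement, the Universal PBM Analysis Suite assigned an E-score. Binding data came from GST-tagged yeast transcription factors, applied at about 100-200 nM, on universal all-10-mer Agilent arrays made double-stranded by primer extension. Fluorescent anti-GST marked bound protein, and scans were normalised with masliner.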

Sequence	PBM E-score
ACAACCGA	0.26
AGCGCGCG	0.162
AATTCACT	-0.294
ACAGTCCT	-0.312
AAACCTCG	0.131
ATCCTCAC	0.0944
ATTGAAGA	-0.154
AGAGCTGA	-0.168
AGAGATTG	-0.0841
ATTGTTCC	-0.00518
AGTCGGCA	0.00779
GCGCAGCC	-0.288
AGGCGGAG	0.0195
AAGCTCGG	0.116
CAATATTA	0.183
CTCCTAAA	-0.166
TAGGAAAA	-0.269
ACCGCTTA	0.115
CCCTGTCC	-0.0638
AATGAAGC	-0.0973
GACTTGAC	-0.143
CCGTCTTA	-0.174
ATGTAATC	0.0489
AATCCCCC	-0.204
GCGGCAAA	-0.104

Sequence	PBM E-score
CGAATGTA	0.175
AATCGCTG	-0.104
CAGCAAGA	-0.0339
CTGCAAAC	0.0508
CGCCATTA	-0.106
CAAACTCC	0.0835
GATAGGCA	0.0183
AGAGACAA	-0.245
TGAGCTAA	-0.196
AACATGGT	-0.166
GGAGCTAA	-0.0044
CGCGTGAA	0.208
TATGAAAA	-0.104
GAACTGGA	-0.0453
ATGGTCAG	-0.0222
AGGATTAA	-0.266
GGACGCCA	-0.132
GCCGACCA	-0.187
CATAGGGG	-0.244
AGGTAAGG	-0.198
CGAGCCGC	0.29
ATCCTAAC	-0.0441
ACAAATGA	-0.158
AGACTACT	0.0928
CTTAGCGA	0.234

Sequence	PBM E-score
GCGTTGCC	-0.00614
ACTTACAC	-0.0703
GACCATTA	-0.0989
AGCGCCTG	-0.148
AATGAGTC	-0.0397
CAATGTCG	0.0816
CCTTACAC	-0.0864
TACACAGA	-0.0979
TACCGAAA	0.159
AACAAGCG	0.214
ATGCTTAG	-0.261
AAGAAGCT	-0.0508
AAATTCCC	-0.163
AATGGCGT	-0.0396
AAATGTCC	-0.0625
GCGCTACA	-0.059
GGGGGATA	-0.233
AAGTAAGA	-0.302
AAGGCACG	-0.00016
GACAGGAC	-0.0177
ACTCATCG	0.0131
CGTGTCCC	0.0542
GGCCAGGA	-0.203
ACACCCAT	0.176
CATCTTTC	-0.144

Sequence	PBM E-score
CATAAATG	-0.268
AACTTACA	-0.11
GCTAACGA	0.281
GTAGCCTA	-0.109
CGACATTA	0.195
CGTAAAAC	0.367
GTAGCGAC	0.111
GCATTGAA	0.0472
AGCCAGAC	0.00884
AGGTAGTC	-0.116
GGCCTAGA	-0.244
ACTCTGAC	-0.0951
ATGATTTC	0.053
GGTCCATA	-0.198
ATCCTGGA	-0.0612
GTGAAACA	0.0398
CCCCCAGG	-0.266
TAGCGTCA	-0.123
CCGGCCGA	-0.113
CAGCCCCG	-0.014
CCATAGCC	-0.339
CACTCTTC	-0.0163
ATCGGCAT	0.0759
GTTAATGA	0.0625
AAGACATC	-0.236

Sequence	PBM E-score
CGACAGCC	0.0652
CACGCAGG	0.0145
ATAGCTGA	-0.15
GATTTCCA	-0.146
ACCCTCAC	-0.215
AAACCAGG	-0.0434
CGCACCTC	0.00643
GGAAGATA	-0.0637
AAGCTAGA	-0.165
CAGTTGCA	0.0569
GTAGCAAA	0.0111
CATGTTAC	0.064
AGGTTGGG	-0.0922
AATCCACA	-0.076
CCGTCAAC	-0.141
CACCCCAG	-0.0849
AGTATGAC	0.0876
AATATCCA	0.0341
TCACCCCA	-0.109
CCGTGATA	-0.151
AAAATGTG	-0.168
GCGATGAC	0.174
GAGTGGAC	-0.0827
ATATAGAT	0.213
GTCGTGTA	0.304

Sequence	PBM E-score
AACCCACG	-0.0836
ATGCTAAC	0.00838
ACTCCGAC	-0.0614
CCACCTAA	-0.305
AGACCGCT	-0.111
CATAACAA	0.00709
ACGGGTGG	0.0111
CTCAGAAG	-0.0949
AAAATTGC	0.221
CATCGAGA	0.0331
CAACTTGC	-0.168
GTGGGAGA	-0.0659
CGACCGAG	0.295
ATGGTTCC	-0.0916
CAATGGTG	-0.208
AAAATGTC	0.0937
CGCGCACA	0.0673
AGCTCTGG	-0.206
GTTTCAGA	-0.174
GACGTACA	0.211
ACCCAAGA	-0.252
AGAGAGTC	-0.168
AGCGAGCC	0.236
CCGTCGGC	0.0969
CAACCCGG	-0.0773

Sequence	PBM E-score
ATAGTAAA	0.0815
TGATCAAA	-0.0221
GAAATAGC	-0.172
AACCGCCA	-0.269
CTGCGGCA	-0.216
CGTTACCC	0.155
CCAGTCAC	-0.272
AACGCCTA	-0.0445
ACACACTC	-0.0104
CATGAATA	-0.127
CATCGACA	-0.0336
ATCACACA	-0.116
AAGTGTGG	-0.184
GGAGCGGA	0.193
AGGCCTGC	-0.18
AGTCCTCG	0.0271
ACCCCGAG	-0.188
CGGGAACG	0.456
ACTCCCTC	-0.184
ACTGACGG	-0.239
ACCATTGG	-0.152
GACGCATA	0.15
ACGTCTAC	0.00544
CCAGAGCG	-0.225
AAATCCCC	-0.161

Sequence	PBM E-score
CTAACTAA	0.00882
ATGCTCGC	0.235
AGCCTGAA	-0.206
AACTTGGC	-0.12
GTGGGCAA	-0.0984
AAGTCGCC	-0.133
CAGGCAAA	0.0456
GCGCTAAC	0.0825
ATCGGAAC	0.288
ACCCCACG	-0.308
CCTGGACC	-0.0767
GAGATCCA	-0.117
GACAATGC	-0.01
CGCGATCC	0.0945
TAGTTATA	0.0456
ACACGAAA	0.224
ACGGTGCG	0.314
GTCAATTA	0.0655
GGCAACAA	-0.0616
AGAGATTC	-0.0312
AGATCTGG	-0.324
AATTCCGA	0.199
GTCACTGA	-0.0926
CATCTTCG	0.153
ATTTCACA	-0.107

Sequence	PBM E-score
TATTGTCA	-0.169
ATTCTGAG	-0.235
ACATGCCT	-0.0959
ACCGCCGA	-0.0535
CTTACAAA	0.133
GTGCGAAA	0.151
GTGGAAAA	0.0147
AGACCACG	-0.221
AAACAAGA	0.152
AGGACTTC	-0.167
AGCAGCGC	-0.113
GGTGAGTA	-0.114
CAAAACCC	-0.0641
AGTAGCAA	0.0359
AGACCCAA	-0.197
CGCGCCAC	-0.114
CACTCATC	-0.0775
CCAGCGTC	-0.145
TCATCAGA	-0.0979
ACCCATGC	-0.268
AGACACCG	-0.117
GGTGGTAC	0.0773
TATTTCGA	0.161
AACCAACG	-0.25
GATGGAGA	-0.088

Sequence	PBM E-score
CCTCCCTA	-0.0494
CTCAGCTC	-0.0614
ATGACAGC	-0.209
GAGGAAGC	0.0341
CTCTACCC	0.0803
CTCGATCC	0.188
CTTTAAGC	-0.0727
ACGGGGCC	0.154
AATACTAG	0.0461
CGACCAAC	0.118
GGGAACAC	0.0114
AAGATCTC	-0.0385
AAGTCACT	-0.0396
CACACGTC	-0.127
ACTCCCGG	-0.205
CAGATGTC	0.149
AACGGAGC	0.121
GGCTGCCA	-0.229
CCCCGTAC	0.377
CACATTAG	-0.0892
ATTGCTAA	0.0762
CGGAACTA	0.124
AGACGACT	0.065
GGATATCC	-0.031
GAATATCC	0.0663

Sequence	PBM E-score
GATCCGCC	0.00521
AGGGAGGA	-0.0641
ACTGTGGA	-0.242
ATTCCCTG	-0.159
GTCGAGCA	-0.113
CGCCTGAC	-0.0755
AGCAGTAG	-0.212
CCGCCTAG	-0.193
AATGGTCC	0.013
GTAGCTAC	0.044
AGACCAGA	-0.168
AAGCGCAA	0.113
ATGGAGTC	-0.195
GAACTGCC	-0.0587
GACCGATA	0.189
ATCTGCGA	-0.0287
CCCGATCG	0.166
ACGCAACT	0.0219
CTTGGATC	-0.127
CGGTGGAA	0.105
AACTTAAG	-0.187
CAAGTCAG	-0.133
GAAGATAA	0.0689
AGGGAAAG	-0.0887
CATCTGGA	-0.101

Sequence	PBM E-score
CCTTCGAG	-0.0778
GATTTTTA	0.0232
CCGGCGTA	0.21
GATAGCCC	-0.241
AACGTGCA	-0.044
AGCACTAG	0.0733
GTTCATCA	-0.012
GCAGATAC	0.00328
CTGATATA	0.106
CTGCGAAA	-0.0747
ACGACTCT	0.308
CGATCACC	0.0902
CTGTAGTA	0.102
AGCTGACT	0.0435
CCGGGTAA	0.0464
GACTACCA	-0.0433
CGAGCCCC	0.0842
GAGGCTGC	-0.14
CGATACCA	0.179
CCAATAGA	-0.143
AACCGTGC	0.0493
ACATTCTA	0.0106
CTGACTAA	-0.285
CGGTAGCC	-0.0334
GGGTATAA	-0.0376

Sequence	PBM E-score
CTGTATCA	-0.193
GAAGAATC	-0.165
CAGTTCGA	-0.0221
CACTCTGA	-0.0911
AGTGGGAA	-0.0286
ATTGTTGG	-0.138
ACCGAAAA	0.257
ATATAGGC	-0.00233
CAACAAGC	-0.0456
AACCTTAA	-0.112
GGGTGCTA	-0.19
GGGGCTAA	-0.239
TGATTTAA	-0.0513
GCAATTGC	-0.0494
AAAGTCTC	-0.145
ACAGCGAG	0.0583
CCACGTGA	-0.244
ATTTGGAG	-0.118
GAGACGTA	0.0975
ACCCTATC	-0.114
TCTGAGCA	-0.139
CCTATTTC	-0.187
CGTACTCC	0.312
CCTGTATA	0.0427
ACATTAAA	0.0976

Sequence	PBM E-score
AGTCATAT	-0.0883
ACCGATCG	0.199
AAGCTTAG	-0.144
CGACAGGA	0.131
AGTGCTAA	-0.0946
TACCTCCA	0.0539
ACACTACC	-0.0934
GTCAGCCA	-0.171
AGGGATTG	-0.0547
GCGCGGTA	0.113
CAACCCTG	-0.0755
ACCTACGT	0.077
GGGACTTA	0.0457
CTACGAAG	0.297
ATCGCACA	0.239
CATGCACA	-0.0752
GCGCATGA	-0.219
AACGTGGG	-0.133
AGCATCCG	0.0405
